Results on 18 molecules are retold here after the supplement of paper PMC10369915.

The other results are listed elsewhere or left out. Cut-off read from the data, not from the text of the source: active = 3.2 or more and inactive = the rest. Only a few entries rise above the background.
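Note: displayed peptides selected on beads carrying the immobilized SH2 domain, with library peptides lacking any tyrosine serving as negative controls.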

The target of one assay is SHP2 C-SH2 domain E139D. The assay is described as follows: enrichment score (SH2-bound / input frequency) (ratio); bacterial display of known human phosphotyrosine sites (pTyr-Var adds point mutants) read by sequencing; higher = stronger binding; tyrosines were phosphorylated by kinases first. The note with it: peptide library: Human pTyr.
KDNDSHVYAVIEDTM [CDCP1_HUMAN_734]: the enrichment score was inactive: 1.13.

In the case of IPAAYNRYDQERFKG [CDC73_HUMAN_293], the enrichment score is inactive: 0.827.

With EDMRGILYAAPQLRS [CD19_HUMAN_508], the enrichment score is inactive: 0.667.

Regarding SRLLHSDYMNMTPRR [CD28_HUMAN_191], the enrichment score was inactive: 1.37.

Take EGTYGVVYKGRHKTT [CDK1_HUMAN_19]: the enrichment score was inactive: 0.788.

SSSANAIYSLAARPL [CBL_HUMAN_674]: the enrichment score was inactive: 0.529.

YGSPLKAYTPVVVTQ [CD11A_HUMAN_582]: the enrichment score is inactive: 1.14.

GGQAGEVYEGVWKKA [ABL1_HUMAN_257_YA]: the enrichment score was inactive: 0.948.

With GGEQDADYLNDWGPR [CDH2_HUMAN_886_YA], the enrichment score was inactive: 0.569.

As to NLDDCSMYEDISRGL [CD79A_HUMAN_199], the enrichment score was inactive: 1.3.

With EKIGEGTYGVVAKGR [CDK1_HUMAN_15_YA], the enrichment score is inactive: 0.832.

For ERLGEDPYYTENGGG [CD34_HUMAN_329], the enrichment score was inactive: 0.752.

Turning to VSQIAVAYHNIRDID [CDC23_HUMAN_273], the enrichment score was inactive: 0.848.

For GGEQDYDYLNDWGPR [CDH2_HUMAN_886], the enrichment score was inactive: 0.602.

With ASHVDNEYSQPPRNS [CD5_HUMAN_453], the enrichment score was inactive: 0.655.

For DDLEVPAYEDIFRDE [CDC45_HUMAN_130], the enrichment score is inactive: 1.57.

Regarding GMEEDHTYEGLDIDQ [CD79B_HUMAN_196], the enrichment score was inactive: 1.24.

In the case of STATKDTYDALHMQA [CD3Z_HUMAN_153], the enrichment score is inactive: 0.741.

In another assay the target is SHP2 C-SH2 domain wild-type. The assay is described as above. The note with it: peptide library: Human pTyr.
Take KDNDSHVYAVIEDTM [CDCP1_HUMAN_734]: the enrichment score was inactive: 1.36.

As for IPAAYNRYDQERFKG [CDC73_HUMAN_293], the enrichment score was inactive: 0.734.

For the molecule EDMRGILYAAPQLRS [CD19_HUMAN_508], the enrichment score is inactive: 0.44.

Turning to SRLLHSDYMNMTPRR [CD28_HUMAN_191], the enrichment score was inactive: 1.1.

Turning to EGTYGVVYKGRHKTT [CDK1_HUMAN_19], the enrichment score was inactive: 0.578.

Take SSSANAIYSLAARPL [CBL_HUMAN_674]: the enrichment score was inactive: 0.428.

Take YGSPLKAYTPVVVTQ [CD11A_HUMAN_582]: the enrichment score was inactive: 1.97.

Regarding GGQAGEVYEGVWKKA [ABL1_HUMAN_257_YA], the enrichment score is inactive: 0.516.

Regarding GGEQDADYLNDWGPR [CDH2_HUMAN_886_YA], the enrichment score was inactive: 0.463.

For NLDDCSMYEDISRGL [CD79A_HUMAN_199], the enrichment score was inactive: 0.833.

As for EKIGEGTYGVVAKGR [CDK1_HUMAN_15_YA], the enrichment score is inactive: 0.672.

ERLGEDPYYTENGGG [CD34_HUMAN_329]: the enrichment score is inactive: 0.782.

On to VSQIAVAYHNIRDID [CDC23_HUMAN_273], for which the enrichment score is inactive: 1.18.

Consider GGEQDYDYLNDWGPR [CDH2_HUMAN_886], for which the enrichment score was inactive: 0.45.

Regarding ASHVDNEYSQPPRNS [CD5_HUMAN_453], the enrichment score is inactive: 0.555.

On to DDLEVPAYEDIFRDE [CDC45_HUMAN_130], for which the enrichment score is inactive: 1.25.

Take GMEEDHTYEGLDIDQ [CD79B_HUMAN_196]: the enrichment score was inactive: 1.27.

Consider STATKDTYDALHMQA [CD3Z_HUMAN_153], for which the enrichment score is inactive: 0.609.

A further assay has as its target SHP2 N-SH2 domain L43F. The description is as above. The note with it: peptide library: Human pTyr.
Regarding KDNDSHVYAVIEDTM [CDCP1_HUMAN_734], the enrichment score was inactive: 0.897.

Turning to IPAAYNRYDQERFKG [CDC73_HUMAN_293], the enrichment score was inactive: 0.858.

As to EDMRGILYAAPQLRS [CD19_HUMAN_508], the enrichment score was inactive: 0.566.

As for SRLLHSDYMNMTPRR [CD28_HUMAN_191], the enrichment score is inactive: 1.14.

With EGTYGVVYKGRHKTT [CDK1_HUMAN_19], the enrichment score is inactive: 0.58.

In the case of SSSANAIYSLAARPL [CBL_HUMAN_674], the enrichment score was inactive: 0.5.

On to YGSPLKAYTPVVVTQ [CD11A_HUMAN_582], for which the enrichment score is inactive: 0.757.

With GGQAGEVYEGVWKKA [ABL1_HUMAN_257_YA], the enrichment score is inactive: 0.661.

Regarding GGEQDADYLNDWGPR [CDH2_HUMAN_886_YA], the enrichment score was inactive: 0.568.

Turning to NLDDCSMYEDISRGL [CD79A_HUMAN_199], the enrichment score was inactive: 1.1.

EKIGEGTYGVVAKGR [CDK1_HUMAN_15_YA]: the enrichment score was inactive: 0.716.

Take ERLGEDPYYTENGGG [CD34_HUMAN_329]: the enrichment score is inactive: 0.86.

Consider VSQIAVAYHNIRDID [CDC23_HUMAN_273], for which the enrichment score is inactive: 0.746.

As for GGEQDYDYLNDWGPR [CDH2_HUMAN_886], the enrichment score was inactive: 0.794.

In the case of ASHVDNEYSQPPRNS [CD5_HUMAN_453], the enrichment score was inactive: 0.642.

As to DDLEVPAYEDIFRDE [CDC45_HUMAN_130], the enrichment score was inactive: 1.

On to GMEEDHTYEGLDIDQ [CD79B_HUMAN_196], for which the enrichment score was inactive: 1.2.

As to STATKDTYDALHMQA [CD3Z_HUMAN_153], the enrichment score was inactive: 0.775.

A further assay addresses SHP2 N-SH2 domain T42A. The description is as above. The note with it: peptide library: Human pTyr.
With KDNDSHVYAVIEDTM [CDCP1_HUMAN_734], the enrichment score was inactive: 1.14.

Regarding IPAAYNRYDQERFKG [CDC73_HUMAN_293], the enrichment score is inactive: 0.766.

As to EDMRGILYAAPQLRS [CD19_HUMAN_508], the enrichment score was inactive: 0.562.

Turning to SRLLHSDYMNMTPRR [CD28_HUMAN_191], the enrichment score is inactive: 0.911.

As for EGTYGVVYKGRHKTT [CDK1_HUMAN_19], the enrichment score was inactive: 0.693.

SSSANAIYSLAARPL [CBL_HUMAN_674]: the enrichment score is inactive: 0.554.

Regarding YGSPLKAYTPVVVTQ [CD11A_HUMAN_582], the enrichment score is inactive: 2.42.

Turning to GGQAGEVYEGVWKKA [ABL1_HUMAN_257_YA], the enrichment score is inactive: 0.42.

Take GGEQDADYLNDWGPR [CDH2_HUMAN_886_YA]: the enrichment score was inactive: 0.617.

On to NLDDCSMYEDISRGL [CD79A_HUMAN_199], for which the enrichment score is inactive: 1.02.

In the case of EKIGEGTYGVVAKGR [CDK1_HUMAN_15_YA], the enrichment score was inactive: 0.664.

Turning to ERLGEDPYYTENGGG [CD34_HUMAN_329], the enrichment score is inactive: 0.789.

As to VSQIAVAYHNIRDID [CDC23_HUMAN_273], the enrichment score was inactive: 0.531.

As to GGEQDYDYLNDWGPR [CDH2_HUMAN_886], the enrichment score is inactive: 0.57.

Turning to ASHVDNEYSQPPRNS [CD5_HUMAN_453], the enrichment score is inactive: 0.601.

Turning to DDLEVPAYEDIFRDE [CDC45_HUMAN_130], the enrichment score was inactive: 1.6.

With GMEEDHTYEGLDIDQ [CD79B_HUMAN_196], the enrichment score was inactive: 1.13.

With STATKDTYDALHMQA [CD3Z_HUMAN_153], the enrichment score was inactive: 0.74.

The target in another assay is SHP2 N-SH2 domain T52S. The assay is described as above. The following applies: peptide library: Human pTyr.
On to KDNDSHVYAVIEDTM [CDCP1_HUMAN_734], for which the enrichment score was inactive: 0.896.

For the molecule IPAAYNRYDQERFKG [CDC73_HUMAN_293], the enrichment score is inactive: 0.854.

As for EDMRGILYAAPQLRS [CD19_HUMAN_508], the enrichment score was inactive: 0.662.

Regarding SRLLHSDYMNMTPRR [CD28_HUMAN_191], the enrichment score is inactive: 0.977.

As to EGTYGVVYKGRHKTT [CDK1_HUMAN_19], the enrichment score is inactive: 0.861.

With SSSANAIYSLAARPL [CBL_HUMAN_674], the enrichment score is inactive: 0.514.

Turning to YGSPLKAYTPVVVTQ [CD11A_HUMAN_582], the enrichment score was inactive: 0.961.

GGQAGEVYEGVWKKA [ABL1_HUMAN_257_YA]: the enrichment score is inactive: 0.685.

GGEQDADYLNDWGPR [CDH2_HUMAN_886_YA]: the enrichment score was inactive: 0.643.

As to NLDDCSMYEDISRGL [CD79A_HUMAN_199], the enrichment score is inactive: 0.985.

For the molecule EKIGEGTYGVVAKGR [CDK1_HUMAN_15_YA], the enrichment score is inactive: 1.07.

Consider ERLGEDPYYTENGGG [CD34_HUMAN_329], for which the enrichment score was inactive: 0.664.

In the case of VSQIAVAYHNIRDID [CDC23_HUMAN_273], the enrichment score was inactive: 0.64.

As to GGEQDYDYLNDWGPR [CDH2_HUMAN_886], the enrichment score was inactive: 0.683.

Regarding ASHVDNEYSQPPRNS [CD5_HUMAN_453], the enrichment score was inactive: 0.672.

On to DDLEVPAYEDIFRDE [CDC45_HUMAN_130], for which the enrichment score is inactive: 1.08.

With GMEEDHTYEGLDIDQ [CD79B_HUMAN_196], the enrichment score was inactive: 1.17.

In the case of STATKDTYDALHMQA [CD3Z_HUMAN_153], the enrichment score is inactive: 0.684.

For another assay, the target named is SHP2 N-SH2 domain wild-type. Described as above. The following applies: peptide library: Human pTyr.
For KDNDSHVYAVIEDTM [CDCP1_HUMAN_734], the enrichment score is inactive: 0.871.

Take IPAAYNRYDQERFKG [CDC73_HUMAN_293]: the enrichment score was inactive: 0.961.

For EDMRGILYAAPQLRS [CD19_HUMAN_508], the enrichment score is inactive: 0.682.

Take SRLLHSDYMNMTPRR [CD28_HUMAN_191]: the enrichment score was inactive: 1.21.

Regarding EGTYGVVYKGRHKTT [CDK1_HUMAN_19], the enrichment score is inactive: 0.664.

For the molecule SSSANAIYSLAARPL [CBL_HUMAN_674], the enrichment score was inactive: 0.48.

Regarding YGSPLKAYTPVVVTQ [CD11A_HUMAN_582], the enrichment score was inactive: 0.811.

Regarding GGQAGEVYEGVWKKA [ABL1_HUMAN_257_YA], the enrichment score is inactive: 0.449.

GGEQDADYLNDWGPR [CDH2_HUMAN_886_YA]: the enrichment score was inactive: 0.619.

On to NLDDCSMYEDISRGL [CD79A_HUMAN_199], for which the enrichment score was inactive: 1.09.

Regarding EKIGEGTYGVVAKGR [CDK1_HUMAN_15_YA], the enrichment score was inactive: 0.789.

Take ERLGEDPYYTENGGG [CD34_HUMAN_329]: the enrichment score is inactive: 0.64.

For the molecule VSQIAVAYHNIRDID [CDC23_HUMAN_273], the enrichment score was inactive: 0.79.

Turning to GGEQDYDYLNDWGPR [CDH2_HUMAN_886], the enrichment score was inactive: 0.691.

For ASHVDNEYSQPPRNS [CD5_HUMAN_453], the enrichment score was inactive: 0.692.

For DDLEVPAYEDIFRDE [CDC45_HUMAN_130], the enrichment score was inactive: 1.39.

For the molecule GMEEDHTYEGLDIDQ [CD79B_HUMAN_196], the enrichment score was inactive: 1.47.

Consider STATKDTYDALHMQA [CD3Z_HUMAN_153], for which the enrichment score is inactive: 0.547.
